{"source": "PubChem BioAssay AID686978", "about": "(National Center for Advancing Translational Sciences (NCATS), 2013)", "note": "“And” between values parts separate entries of the source, which are not always exact repeats. Identical values can stand only once. About 64,000 (15%) of roughly 420,000 compounds were called active. Inconclusive results, whose numbers are uncertain, are shown with a selection of clear calls. The call rests on the fitted dose curve; in most records, active means well fitted inhibition curve with a large enough effect; inconclusive means small, poorly fitted or top-dose-only effect; inactive means flat fitted curve, though single readings scatter. No potency is given beside an inconclusive call; the fits are too rough. Potency means the concentration at half of the fitted maximal effect; tags describe the fitted curve by direction and shape.", "data": [{"experiment": "qHTS for Inhibitors of human tyrosyl-DNA phosphodiesterase 1 (TDP1): qHTS in cells in absence of CPT; further: nearly all actives have a fitted effect of over 55% in size", "details": "DT40 Tdp1-/- hTDP1 cells, no CPT, ATP luminescence, 48 h; series mostly up to 46.2 µM", "summary_of_the_method": "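Compound effects on proliferation are scored in DT40 Tdp1-/-;hTDP1 cells in the absence of CPT. ATP levels (CellTiter-Glo luminescence) are recorded after a ≥48 hr, 37 °C incubation.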", "values": [{"smiles": "CCOC(=O)c1cccc(NC(=O)CC2C(=O)N(c3ccc(F)cc3)C(=O)N2Cc2cccc(OC)c2)c1", "note": "(stereo unspecified)", "Potency": "inconclusive [inhibitor, single point]"}, {"smiles": "CC(C)(C)c1ccc(OCC(=O)Nc2ccc(-c3nc4cccnc4o3)cc2)cc1", "Potency": "active: 9.2 µM"}, {"smiles": "COc1ccc(CNC(=O)CC2C[C@H](C(=O)N3CCCCC3)[C@@]3(C)c4[nH]c5ccccc5c4CCN3C2=O)cc1OC", "note": "(stereo partly specified)", "Potency": "inconclusive [inhibitor, single point]"}, {"smiles": "COc1ccc2ccccc2c1CNCc1ccc(C)cc1", "Potency": "inconclusive [inhibitor, single point]"}, {"smiles": "CC(=O)c1cccc(N(CC(=O)NCC2CCCO2)C(=O)CCC(=O)Nc2cc(C)on2)c1", "note": "(stereo unspecified)", "Potency": "inactive"}, {"smiles": "CC(C)=C1SC(N2CCN(Cc3ccccc3)CC2)=NC1=O", "Potency": "inactive"}, {"smiles": "CC1=Nc2cc(C(=O)NC3CCCC3)ccc2Sc2ccc(Cl)cc21", "Potency": "active: 0.58 µM"}, {"smiles": "N#Cc1ccsc1NC(=O)CN1CCN(S(=O)(=O)c2cc(Cl)ccc2Cl)CC1", "Potency": "active: 20.6 µM"}, {"smiles": "CCc1ccc(-c2cc(C)no2)cc1S(=O)(=O)N1CCN(c2cccc(C)c2C)CC1", "Potency": "inconclusive [inhibitor, single point]"}, {"smiles": "CC(C)c1nnc(NC(=O)CCC(=O)NCc2ccc(F)cc2)s1", "Potency": "inconclusive [inhibitor, single point]"}, {"smiles": "CCOc1ccc(-c2noc(CSc3nnc(Cc4ccccc4)n3-c3ccc(F)cc3)n2)cc1", "Potency": "inconclusive [inhibitor, single point]"}, {"smiles": "CCC(c1nnnn1C1CCCC1)N(Cc1cccs1)Cc1cc2cccc(C)c2[nH]c1=O", "note": "(stereo unspecified)", "Potency": "active: 18.4 µM"}, {"smiles": "COc1ccc(Cl)cc1NS(=O)(=O)N1CCOCC1", "Potency": "inactive"}, {"smiles": "C=C1C(=O)O[C@H]2C1CC[C@@](C)(O)C13C=CC(C)(C21)C1(C3)C(=O)O[C@@H]2C3C(C)=CCC3[C@](C)(O)C[C@H](OC(C)=O)C21", "note": "(stereo partly specified)", "Potency": "active: 16.4 µM"}, {"smiles": "O=C1NC(=O)C(c2ccccc2)(c2ccccc2)N1S(=O)(=O)c1ccccc1", "Potency": "inactive"}, {"smiles": "Cc1ccc(CCN2CC(C(=O)NCCCN3CCC(C)CC3)CC2=O)cc1", "note": "(stereo unspecified)", "Potency": "inconclusive [inhibitor, single point]"}, {"smiles": "Cc1cc(C)c(S(=O)(=O)c2ccccc2C)c(Cl)n1", "Potency": "inactive"}, {"smiles": "O=C(CNc1ccc(Cl)cc1)c1ccc(Br)cc1", "Potency": "inactive"}, {"smiles": "COc1ccc(N(C)S(=O)(=O)c2ccc3c(c2)n(C)c(=O)c(=O)n3C)cc1", "Potency": "inactive"}, {"smiles": "CCOCCc1nn2c(=O)cc(COC(=O)c3ccccc3NC(=O)CC(C)C)nc2s1", "Potency": "inconclusive [inhibitor, single point]"}, {"smiles": "Cc1cc(-c2csc(N)n2)c(C)n1Cc1ccccc1", "Potency": "inconclusive [inhibitor, single point]"}, {"smiles": "CCOc1ccc(CCN2C(=O)C(=O)N([C@@H](Cc3ccc(O)cc3)CN3CCC[C@H]3CN3C(=O)C(=O)NC[C@@H]3Cc3ccc(O)cc3)C[C@@H]2Cc2ccc(O)cc2)cc1", "Potency": "inactive"}, {"smiles": "COc1ccc(/C=C/C=C2\\N=C(SC)SC2=O)cc1", "Potency": "active: 29.1 µM"}, {"smiles": "CCOC(=O)c1cc(C)sc1NC(=O)CN1CCN(C(=O)C2CCCO2)CC1", "note": "(stereo unspecified)", "Potency": "inconclusive [inhibitor, partial curve]"}, {"smiles": "Cc1cc(Cl)n2ncc(-c3ccccc3)c2n1", "Potency": "active: 29.1 µM"}, {"smiles": "COc1cccc(C(=O)Nc2c3c(nn2-c2ccc(C)cc2C)CS(=O)(=O)C3)c1OC", "Potency": "active: 23.1 µM"}, {"smiles": "CC(C)Nc1oc(Cc2cccc3ccccc23)nc1C#N", "Potency": "inconclusive [inhibitor, partial curve]"}, {"smiles": "COc1cc(CNc2cc(C)ccc2C)cc(OC)c1OC", "Potency": "inconclusive [inhibitor, single point]"}, {"smiles": "CC1(C)C[C@H]2C3=CCC4[C@@]5(C)CC[C@H](O)C(C)(C)C5CC[C@@]4(C)[C@]3(C)[C@@H](O)[C@@H](O)[C@@]2(CO)[C@@H](O)[C@@H]1O", "note": "(stereo partly specified)", "Potency": "inconclusive [inhibitor, partial curve]"}, {"smiles": "C=CCn1c(=O)c2ccccc2n2c(SCC(C)=O)nnc12", "Potency": "inactive"}, {"smiles": "CC(C)c1ccc(NC(=O)C(c2ccc3c(c2)OCO3)N2CCCCC2)cc1", "note": "(stereo unspecified)", "Potency": "active: 23.1 µM"}, {"smiles": "O=C(Cn1c(-c2cccs2)cc2cc(F)ccc21)N1CCCCC1", "Potency": "inconclusive [inhibitor, single point]"}, {"smiles": "CCCc1nnc(NC(=O)c2cc(OC)cc(OC)c2)s1", "Potency": "inactive"}, {"smiles": "Cc1cccc(N2CCN(c3ncnc4c3cnn4-c3ccc(Cl)cc3)CC2C)c1", "note": "(stereo unspecified)", "Potency": "inconclusive [inhibitor, full curve, poor fit]"}, {"smiles": "CC[C@@H]1[C@H]2CCCC(=O)N3CC[C@@H](C[C@@H]1OC(=O)NCc1ccccc1)[C@@H]23", "Potency": "inconclusive [inhibitor, single point]"}, {"smiles": "O=C1/C(=C\\c2ccc3c(c2)OCO3)CCC/C1=C/c1ccc2c(c1)OCO2", "Potency": "inconclusive [inhibitor, single point]"}, {"smiles": "CC1C(=O)N(Cc2cn(CCC3OCCO3)nn2)CCS(=O)(=O)N1Cc1ccc(-c2ccc(F)cc2)cc1", "note": "(stereo unspecified)", "Potency": "inconclusive [inhibitor, single point]"}, {"smiles": "O=C(c1nc(-c2ccccc2)n(-c2ccccc2)n1)N1CCN(S(=O)(=O)c2ccccc2)CC1", "Potency": "inconclusive [inhibitor, partial curve]"}, {"smiles": "O=S1(=O)c2ccccc2OC(COCc2ccccc2)CN1C1CC1", "note": "(stereo unspecified)", "Potency": "active: 18.4 µM"}, {"smiles": "O=C(Cc1nnc(NC(=O)c2ccccc2)s1)N/N=C/c1ccc(O)cc1", "Potency": "inactive"}, {"smiles": "CCOc1ccc(NC(=O)Cc2ccc(-n3c(C)nc4cccnc43)cc2)cc1", "Potency": "inconclusive [inhibitor, single point]"}, {"smiles": "CCCCNc1c(-c2ccc(SC(C)CC)cc2)nc2ccccn12", "note": "(stereo unspecified)", "Potency": "active: 18.4 µM and active: 16.4 µM"}, {"smiles": "NC(Cc1ccc(Cl)cc1)c1csc(NC(=O)Nc2ccccc2-c2ccccc2)n1", "note": "(stereo unspecified)", "Potency": "active: 11.6 µM"}, {"smiles": "COc1cccc(NC(=O)c2ccc(OC(F)(F)F)cc2)c1", "Potency": "inconclusive [inhibitor, single point]"}, {"smiles": "CCCCN(CCCC)C(=O)C[n+]1cccc(/C=N/O)c1", "Potency": "inactive"}, {"smiles": "COc1ccc([C@H]2C[C@@H](n3cc(COC(=O)c4ccccc4)nn3)[C@H](O)CN2CC2CCCCC2)cc1", "Potency": "inconclusive [inhibitor, partial curve]"}, {"smiles": "NS(=O)(=O)c1ccc(CCNC(=S)Nc2ccc(S(N)(=O)=O)cc2)cc1", "Potency": "inactive"}, {"smiles": "COc1ccc(N2CSC(=S)N(c3ccc(OC)cc3)C2)cc1", "Potency": "active: 14.6 µM"}, {"smiles": "COc1ccccc1-c1c(C(F)(F)F)oc2cc(OC(=O)c3ccccc3[N+](=O)[O-])ccc2c1=O", "Potency": "active: 25.9 µM"}, {"smiles": "CCC(C)(C)NC(=O)C(c1ccc(F)cc1)N(Cc1ccco1)C(=O)c1cnccn1", "note": "(stereo unspecified)", "Potency": "inactive"}, {"smiles": "CS(=O)(=O)N(CC(=O)N/N=C/c1cc2c(cc1Br)OCO2)c1ccccc1Br", "Potency": "active: 14.6 µM"}, {"smiles": "CN1CCN(c2nc(-c3ccc4c(c3)OCO4)nc3ccccc23)CC1", "Potency": "inconclusive [inhibitor, single point]"}, {"smiles": "COc1ccc(C(=O)N2CCCCC2C(=O)Nc2ccc(-n3nc(C)cc3C)cc2)o1", "note": "(stereo unspecified)", "Potency": "inconclusive [inhibitor, single point]"}, {"smiles": "O=C(NCCN1CCOCC1)c1cc(Cl)ccc1Cl", "Potency": "inactive"}, {"smiles": "O=C(Nc1ccn(Cc2ccccc2F)n1)c1ccc(COc2ccc(Br)cc2)cc1", "Potency": "inconclusive [inhibitor, single point]"}, {"smiles": "COc1ccccc1CN1C[C@@H]2C[C@@H](c3[nH]c4ccc(C)cc4c3C)N3CCC[C@@]23C1=O", "Potency": "inconclusive [inhibitor, single point]"}, {"smiles": "COc1cc(/C=N\\NC(=O)CN2CCOCC2)ccc1OCC(=O)Nc1ccc(C)c(C)c1", "Potency": "inconclusive [inhibitor, single point]"}, {"smiles": "COc1ccc(C2=CC(=O)C[C@H](c3ccc(F)cc3)C2)c(OC)c1", "Potency": "inconclusive [inhibitor, single point]"}, {"smiles": "Cn1cc(C(=O)c2cccc(Cl)c2)cc1C#N", "Potency": "inactive"}, {"smiles": "O=C(c1ccco1)N1CCC(c2ccccc2)C1", "note": "(stereo unspecified)", "Potency": "inconclusive [inhibitor, full curve]"}, {"smiles": "CCOC(CNC(=O)c1ccc2c(c1)ncn2-c1ccc(F)c(F)c1)OCC", "Potency": "inactive"}, {"smiles": "CC1=CC(=O)C(C(C)C)=CC1=NC(=O)c1ccc(C)cc1", "Potency": "active: 2.06 µM"}, {"smiles": "CCN(CC)CCNC(=O)c1[nH]c2ccccc2c1Sc1ccc(Cl)cc1", "Potency": "inconclusive [inhibitor, single point]"}, {"smiles": "COc1cc(OC)cc(-c2c(C#Cc3ccsc3)c3cc(-c4ccc(OC)cc4F)ccc3n2C)c1", "Potency": "inconclusive [inhibitor, single point]"}, {"smiles": "CC(C)c1ccc(N(CC(=O)NC2CCCCC2)C(=O)CCC(=O)Nc2ccccn2)cc1", "Potency": "inconclusive [inhibitor, single point]"}, {"smiles": "O=C(Cc1ccccc1)c1ccc(N2CCOCC2)cc1", "Potency": "inactive"}, {"smiles": "O=C(Nc1cc(Cl)ccc1Cl)c1cc(S(=O)(=O)N2CCCc3ccccc32)ccc1F", "Potency": "inconclusive [inhibitor, single point]"}, {"smiles": "CCOc1ccc2nc(NC(=O)COC)sc2c1", "Potency": "inactive"}, {"smiles": "COc1ccc2c(c1)CCC/C2=N\\NC(=O)c1ccoc1C", "Potency": "inactive"}, {"smiles": "O=C(NCc1ccccc1)c1cc(S(=O)(=O)N2CCC3(CC2)OCCO3)ccc1F", "Potency": "inconclusive [inhibitor, single point]"}, {"smiles": "CCCc1n(CC(O)COC2CCCCC2)c2ccccc2[n+]1C", "note": "(stereo unspecified)", "Potency": "active: 3.66 µM"}]}]}
